Laboratory results published in PubChem BioAssay AID2060611 (Molecular Pharmacology Branch, DTP, NCI, 2025).
Certain results were filed several times, with different values. This list holds those alone. An entry can have further records. The records of an entry are repeated measurements across runs, samples, wells, individuals or studies.

System: 628569-122-R-J1-PDC complex spheroid viability
Assay: Anticancer human tumor 628569-122-R-J1-PDC patient-derived head and neck squamous carcinoma cell line growth inhibition [CLK]
Conditions: compound alone
Description: A high-throughput screen of multi-cell type tumor spheroids was designed to identify active combinations of […] and targeted small molecules. Complex spheroids include a stromal component modeled by human endothelial cells (HUVEC) and fibroblasts modeled by human mesenchymal stem cells (MSCs). The concentration ranges selected for each drug and investigational agent were based upon clinically achievable concentrations if the clinical Cmax of the agent was known.
Compounds. The drugs and investigational agents: cirtuvivint (SM08502; NSC835563), CC-671 (NSC850746), vemurafenib (NSC761431), tapotoclax (NSC804041), sotorasib (NSC818433), adagrasib (NSC831453), MRTX-1133 (NSC836407), BAY2416964 (NSC825713), copanlisib (NSC816437), inavolisib (NSC800729), abemaciclib (NSC768073), osimertinib (NSC779217), entinostat (NSC756642), eltanexor (KPT-8602, NSC794443), venetoclax (NSC766270), ceralasertib (NSC777638), bortezomib (NSC756655), olaparib (NSC753686), talazoparib (NSC767125), alisertib (NSC759677), peposertib (NSC802822), gemcitabine (NSC613327), 5-fluorouracil (NSC19893), SN-38 (NSC673596), oxaliplatin (NSC266046), paclitaxel (NSC125973), and doxorubicin (NSC123127), were obtained from the National Cancer Institute (NCI) Developmental Therapeutics Program Chemical Repository. […] If the clinical Cmax for an agent had not been determined, the highest concentration tested was 10 microM. […]
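Further: spheroids exposed to agents for seven days before readout.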

SMILES	IC50	IC50 (combination, run of 09/19/2023)
CCc1c2c(nc3ccc(O)cc13)-c1cc3c(c(=O)n1C2)COC(=O)[C@]3(O)CC	39.5 nM and < 3.16 nM	–
CNC(=O)c1ccc(Nc2nc(OC3CCCC3)c3c(-c4ccc5nc(C)oc5c4)c[nH]c3n2)c(OC)c1	–	291 nM, 196 nM, 182 nM, 486 nM, 855 nM, 217 nM, 302 nM, 775 nM, 1.47 µM, 331 nM, 359 nM, 369 nM
